Test results reported in PubChem BioAssay AID504706 (National Center for Advancing Translational Sciences (NCATS), 2011).
In all, about 320,000 compounds went through this assay and about 200 (0.062%) were called active. Inconclusive means that the source gave no clear call. Such entries were picked first, then a sample of the others. Calls follow the shape of the dose curve; as a rule, active = well fitted activation curve with a large enough effect; inconclusive = small, poorly fitted or top-dose-only effect; inactive = no such curve, though single readings can be large or run the other way. Potencies of inconclusive entries are left out as doubtful fits.
Potency is read from the fitted curve at half-maximal effect; tags tell the direction and shape of the fitted curve.

Assay: qHTS assay for re-activators of p53 using a Luc reporter; also: nearly all actives have a fitted effect of over 45% in size
Conditions: H1299 p53-A138V BP100-luciferase reporter, luminescence, 24 h; series mostly up to 92.2 µM
Summary of the method: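 H1299 (p53-null), stable ts p53-A138V + BP100-Luc; 1000 cells/well, Opti-MEM/10% FBS; cpd 4 pt, 1:5; 24 h, 37 deg C, 5% CO2; detection reagent 10 min RT; luminescence.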
In the case of `Cc1ccccc1-c1nnc(SCC(=O)N2CCCC2)o1`, the Potency is reported as inconclusive [activator, partial curve, poor fit]. With `COC(=O)CSCC(=O)Nc1cc2c(cc1C(C)=O)OCO2` the Potency was inconclusive [activator, single point]. In the case of `Cc1ccccc1OCC(=O)Nc1nc2ccccc2[nH]1`, the Potency is reported as “inactive”. With `Cc1cccc(Nc2nc(NCCCN3CCOCC3)nc(N)c2[N+](=O)[O-])c1` the Potency was “inactive”. For `CCCC(=O)NC(=S)Nc1sc2c(c1C(N)=O)CCC2`, the Potency was “inactive”. For `Cc1cccc(/N=C/c2c(O)[nH]c3ccccc23)n1`, the Potency was inconclusive [activator, partial curve, poor fit]. With `COc1ccc(N=NC2=C(O)CC(C)(C)CC2=O)cc1` the Potency was inconclusive [activator, partial curve, poor fit]. With `N/C(=N\OC(=O)C1CCCCC1)c1ccc(Br)cc1` the Potency was inconclusive [activator, partial curve, poor fit]. For `Cc1ccc(OCc2nc(-c3cccs3)no2)c([N+](=O)[O-])c1`, the Potency was inconclusive [activator, full curve, poor fit]. For `COc1ccc(NC(=O)COC(=O)c2ccc(N3CCCC3=O)cc2)cc1`, the Potency was inconclusive [activator, full curve, poor fit]. For `Clc1cccc(C2Nc3cccc4cccc(c34)N2)c1`, the Potency was inconclusive [activator, single point]. In the case of `S=C(N=Nc1ccccc1)NNc1ccccc1`, the Potency is reported as inconclusive [activator, partial curve, poor fit]. In the case of `O=C1CCCC(O)=C1C=Nc1ccc(O)cc1`, the Potency is reported as inconclusive [activator, single point]. For `COCCn1cc(C(=S)N2CCCCC2)c2ccccc21`, the Potency was “inactive”. In the case of `CC(OC(=O)CN1C(=O)C2CC=CCC2C1=O)C(=O)Nc1ccc(F)cc1Cl` (stereo not given), the Potency is reported as inconclusive [activator, single point]. For `CCc1nc(SCC(=O)c2ccc(Cl)s2)c2oc3ccccc3c2n1`, the Potency was inconclusive [activator, single point]. With `Cc1ccc(OCCOCCN2CCCCC2)c([N+](=O)[O-])c1` the Potency was “inactive”. In the case of `Cc1ccc2cc3cc(C(=O)NCCCN4CCCCCC4)oc3nc2c1`, the Potency is reported as inconclusive [activator, single point]. In the case of `Nc1ccccc1Nc1cc(-c2ccccc2)nn1-c1ccccc1`, the Potency is reported as inconclusive [activator, single point]. With `CC1CCCN(C(=O)CNC(=O)c2ccco2)C1` (stereo not given) the Potency was inconclusive [activator, single point].
